A lower IC50 marks a more sensitive line; a fit beyond the top or the lowest dose is shown as a bound at that dose. For AUC the same curve is integrated over the 256-fold range of doses and scaled to a fraction; it is 1 without any effect and falls as sensitivity rises. The top dose, if marked as inferred, is not printed in the source and was worked back from the curve model.
Experiments:
Assay in all cases: Viability of human cancer cell lines after 72 h of drug (GDSC screen)
CAY10603 = compound: CC(C)(C)OC(=O)Nc1ccc(-c2cc(C(=O)NCCCCCCC(=O)NO)no2)cc1 [CAY10603]; settings: top dose 20 µM; top dose inferred
Method: (§1)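 Human cancer cell lines in 384-well plates, medium with 10% serum, drug for 72 h over a 256-fold dose range (nine 2-fold or five 4-fold steps up to the top dose). Adherent lines were fixed and stained with the nucleic acid dye Syto60, suspension lines read with resazurin; signal relative to control wells, capped at 0 and 100%. One two-parameter sigmoid per drug and line, fitted in a mixed model over all curves with the slope shared within a line.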

CH5424802 = compound: CCc1cc2c(cc1N1CCC(N3CCOCC3)CC1)C(C)(C)c1[nH]c3cc(C#N)ccc3c1C2=O [CH5424802]; settings: top dose 5.12 µM; top dose inferred
Method: as §1

ACHP (KIN001-260) = compound: N#Cc1c(C2CCNCC2)cc(-c2c(O)cccc2OCC2CC2)nc1N [ACHP (KIN001-260)]; settings: top dose 20 µM; top dose inferred
Method: as §1

Row | Cell Line | AUC (CAY10603) | IC50 (CAY10603) | AUC (CH5424802) | IC50 (CH5424802) | AUC (ACHP (KIN001-260)) | IC50 (ACHP (KIN001-260))
1 | SKN-3 (head and neck, adherent) | 0.615 | 2.74 µM | 0.982 | > 5.12 µM | 0.926 | > 20 µM
2 | LU-165 (small cell lung carcinoma, suspension) | 0.634 | 3.09 µM | 0.986 | > 5.12 µM | 0.931 | > 20 µM
3 | HN (head and neck, adherent) | 0.868 | 16.4 µM | 0.988 | > 5.12 µM | 0.989 | > 20 µM
4 | KYM-1 (rhabdomyosarcoma, adherent) | 0.518 | 1.38 µM | 0.991 | > 5.12 µM | 0.991 | > 20 µM
5 | NCI-H1666 (lung adenocarcinoma, semi-adherent) | 0.686 | 4.37 µM | 0.982 | > 5.12 µM | 0.982 | > 20 µM
6 | GMS-10 (glioma, adherent) | 0.815 | 10.9 µM | 0.988 | > 5.12 µM | 0.987 | > 20 µM
7 | SW756 (cervix, adherent) | 0.767 | 8.84 µM | 0.982 | > 5.12 µM | 0.983 | > 20 µM
8 | UM-UC-3 (bladder, adherent) | 0.587 | 2.13 µM | 0.984 | > 5.12 µM | 0.915 | > 20 µM
9 | CA46 (Burkitt lymphoma, suspension) | 0.104 | < 0.0781 µM | 0.917 | > 5.12 µM | 0.815 | 12 µM
10 | PANC-08-13 (pancreas, adherent) | 0.746 | 7.91 µM | 0.958 | > 5.12 µM | 0.944 | > 20 µM
11 | A172 (glioma, adherent) | 0.526 | 1.46 µM | 0.988 | > 5.12 µM | 0.984 | > 20 µM
12 | LCLC-103H (large cell lung carcinoma, adherent) | 0.611 | 2.45 µM | 0.989 | > 5.12 µM | 0.906 | > 20 µM
13 | COLO-678 (large intestine, semi-adherent) | 0.875 | > 20 µM | 0.978 | > 5.12 µM | 0.98 | > 20 µM
14 | LU-134-A (small cell lung carcinoma, suspension) | 0.522 | 1.44 µM | 0.982 | > 5.12 µM | 0.987 | > 20 µM
15 | EJM (lymphoid neoplasm, semi-adherent) | 0.414 | 0.757 µM | 0.983 | > 5.12 µM | 0.931 | > 20 µM
16 | KM-H2 (Hodgkin lymphoma, suspension) | 0.992 | > 20 µM | 0.975 | > 5.12 µM | 0.973 | > 20 µM
17 | MFH-ino (soft tissue, adherent) | 0.639 | 3.25 µM | 0.982 | > 5.12 µM | 0.982 | > 20 µM
